Values joined by “and” are separate entries in the source; they are usually repeats but may differ in a detail not shown here. Equal entries are not always repeated. Out of some 110,000 compounds screened, about 230 (0.21%) showed an effect of 50% or more. The list shows a part of the results.
These molecules were tested against DPAP1 (Plasmodium falciparum, UniProt Q8IIJ9) (assay: primary screen, percent inhibition; read by cleavage of a fluorogenic dipeptide substrate; higher = more effect of the substance).
Sequence of DPAP1 (Q8IIJ9 whole entry, looked up): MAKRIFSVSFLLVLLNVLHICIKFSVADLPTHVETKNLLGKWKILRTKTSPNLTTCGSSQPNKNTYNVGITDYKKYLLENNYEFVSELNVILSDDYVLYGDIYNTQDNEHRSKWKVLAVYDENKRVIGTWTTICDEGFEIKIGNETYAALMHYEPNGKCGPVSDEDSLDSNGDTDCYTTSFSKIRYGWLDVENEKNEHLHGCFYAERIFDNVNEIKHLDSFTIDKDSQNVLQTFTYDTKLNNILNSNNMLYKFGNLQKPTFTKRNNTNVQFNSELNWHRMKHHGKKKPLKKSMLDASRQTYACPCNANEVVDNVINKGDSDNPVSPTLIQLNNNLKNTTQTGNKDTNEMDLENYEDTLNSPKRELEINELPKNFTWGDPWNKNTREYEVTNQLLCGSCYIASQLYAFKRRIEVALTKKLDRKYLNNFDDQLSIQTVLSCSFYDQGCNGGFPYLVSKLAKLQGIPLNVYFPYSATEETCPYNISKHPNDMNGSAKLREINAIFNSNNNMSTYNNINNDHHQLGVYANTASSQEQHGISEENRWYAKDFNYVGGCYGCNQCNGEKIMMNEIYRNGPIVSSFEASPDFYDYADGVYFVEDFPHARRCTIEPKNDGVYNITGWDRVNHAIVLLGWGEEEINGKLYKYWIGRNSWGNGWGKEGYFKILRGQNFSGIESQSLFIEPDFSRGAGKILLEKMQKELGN
Set-up: species or system P. falciparum D10 trophozoite lysates; single well
In the case of `O=C(NCCc1ccc(Cl)cc1)c1ccc(S(=O)(=O)N2CCOCC2)cc1`, the “% Inhibition @ 10 uM” value is reported as 4.19%.
With `O=C(Nc1ccc(S(=O)(=O)N2CCCCCC2)cc1)c1ccc(Cl)cc1Cl` the “% Inhibition @ 10 uM” value was -0.173%.
`Cc1ccc(OCCCn2c(CCCO)nc3ccccc32)cc1` was tested, and the “% Inhibition @ 10 uM” value was 3.8% and -3.26%.
`CCCn1c2ccccc2c2cnn(CC(=O)N3CCC(N4CCCCC4)CC3)c(=O)c21` was tested, and the “% Inhibition @ 10 uM” value was -5.3%.
`CC(=O)c1cc2c(cc1NC(=O)c1ccc(Cl)cc1Cl)OCO2` was tested, and the “% Inhibition @ 10 uM” value was -9.66%.
For `CC(C)C1OCCN1CC1COC2(CCCCC2)O1` (stereo not drawn), the “% Inhibition @ 10 uM” value was -2.18%.
In the case of `CCC/N=c1\c(NS(=O)(=O)c2ccc(OC)c(OC)c2)c(O)oc2ccccc12`, the “% Inhibition @ 10 uM” value is reported as -3.33%.
For `CC[C@H](NC(=O)[C@H](CC1(C)CCCCC1)/N=C(\C)NS(C)(=O)=O)C(=O)c1nc(-c2ccccc2)no1`, the “% Inhibition @ 10 uM” value was -6.56%.
In the case of `CC(C)C[C@H](NC(=O)OCC1CCCC1)C(=O)NCC#N`, the “% Inhibition @ 10 uM” value is reported as 0.174%.
In the case of `Cc1oc2c(C)c(O)ccc2c(=O)c1-c1ccccc1`, the “% Inhibition @ 10 uM” value is reported as -5.69%.
`CCCC(=O)NCc1nc2ccccc2n1C` was tested, and the “% Inhibition @ 10 uM” value was -7.44%.
For `O=C1c2ccccc2C(=O)N1c1ccc(O)c2ccccc12`, the “% Inhibition @ 10 uM” value was -2.91%.
`O=C(Nc1ccc(S(=O)(=O)Nc2ccccc2)cc1)C1CC1` was tested, and the “% Inhibition @ 10 uM” value was -8.09%.
In the case of `O=C(O)c1c2ccccc2nc2ccccc12`, the “% Inhibition @ 10 uM” value is reported as -4.77%.
For `CC(CCc1ccccc1)NC(=O)c1cccnc1Cl` (stereo not drawn), the “% Inhibition @ 10 uM” value was -5.35%.
With `CC1=C(C(=O)OCc2ccccc2)C(c2ccc(Cl)c(Cl)c2)NC(=O)N1C` (stereo not drawn) the “% Inhibition @ 10 uM” value was 15.6%.
In the case of `COc1ccc(NC(=O)CN(c2cccc3ccccc23)S(C)(=O)=O)cc1OC`, the “% Inhibition @ 10 uM” value is reported as -10.5%.
For `CC(C)(C)C1CCC(OC(=O)C2CC=CCC2C(=O)OCC2CCCO2)CC1` (stereo not drawn), the “% Inhibition @ 10 uM” value was 6.33%.
In the case of `CCC(COc1nnnc2ccccc12)NS(=O)(=O)c1ccc(-n2cnnn2)cc1` (stereo not drawn), the “% Inhibition @ 10 uM” value is reported as -2.84%.
For `COc1ccccc1N1C(=O)c2ccc(C(=O)Nc3ccccc3C(=O)NCC(C)C)cc2C1=O`, the “% Inhibition @ 10 uM” value was -0.0619%.
In the case of `CCOC(=O)c1c(NC(C)=O)sc2c(O)c(Br)cc(Br)c12`, the “% Inhibition @ 10 uM” value is reported as -1.45%.
With `Cc1ccc(S(=O)(=O)N2CCC(C(=O)NCCc3ccc(Cl)cc3)CC2)cc1` the “% Inhibition @ 10 uM” value was 2.05%.
With `C=CCN1C(=O)/C(=C\c2c[nH]c3ccccc23)C(=O)NC1=S` the “% Inhibition @ 10 uM” value was 4.26%.
For `O=C(NCCCN1CCc2ccccc2C1)c1ccc2c(c1)ncn2C1CCCC1`, the “% Inhibition @ 10 uM” value was -1.34%.
For `COc1ccc(CCNc2nc3c(c(C(F)(F)F)n2)CC(C)CC3)cc1OC` (stereo not drawn), the “% Inhibition @ 10 uM” value was -2.49%.
With `Cc1cc(C)n2cc(COc3ccccc3)nc2n1` the “% Inhibition @ 10 uM” value was -7.17%.
With `Clc1ccc(-c2cn3c4c(sc3n2)CCCC4)cc1` the “% Inhibition @ 10 uM” value was 7.15%.
In the case of `CCN(CC)S(=O)(=O)c1ccc(-c2csc(Nc3ccc(Cl)cc3)n2)cc1`, the “% Inhibition @ 10 uM” value is reported as -0.687%.
In the case of `Fc1ccc(CN2CCOCC2)c(F)c1`, the “% Inhibition @ 10 uM” value is reported as -1.78%.
For `O=C(/C=C/c1ccc(Cl)cc1)Nc1ccc(Br)cc1`, the “% Inhibition @ 10 uM” value was 4.4%.
In the case of `CC(C)C(NC(=O)C1COc2ccccc2O1)C(C)C` (stereo not drawn), the “% Inhibition @ 10 uM” value is reported as -6.94%.
`COc1ccccc1/C=C1/C(=N)N2N=C(C(F)(F)F)SC2=NC1=O` was tested, and the “% Inhibition @ 10 uM” value was -2.87%.
`Cc1c(NC(=O)Cn2cnc3c(=O)n(C)c(=O)n(C)c32)cccc1-c1nc2ccccc2o1` was tested, and the “% Inhibition @ 10 uM” value was -0.473%.
With `OCCN1CCN(c2ncnc3c2c(-c2ccccc2)cn3-c2cccc(C(F)(F)F)c2)CC1` the “% Inhibition @ 10 uM” value was -5.93%.
In the case of `CC1CCc2c(C(=O)NC3CCCc4ccccc43)csc2C1` (stereo not drawn), the “% Inhibition @ 10 uM” value is reported as -6.95%.
With `COc1ccc(CCNC(=O)C2CCCNC2=O)cc1OC` (stereo not drawn) the “% Inhibition @ 10 uM” value was 0.128%.
With `COc1cccc(N(CC(=O)N2CCC(Cc3ccccc3)CC2)S(=O)(=O)c2ccccc2)c1` the “% Inhibition @ 10 uM” value was 7.5%.
In the case of `COc1ccc(CCNC(=O)CSc2nnc3ccccn23)cc1`, the “% Inhibition @ 10 uM” value is reported as 3.47%.
For `Cc1cc2c(c(O)n1)C(=O)O/C2=C\c1ccc(Cl)cc1Cl`, the “% Inhibition @ 10 uM” value was 0.611%.
For `CC(NC(=O)c1ccc(CS(=O)(=O)Cc2ccccc2F)o1)c1ccc2c(c1)OCCO2` (stereo not drawn), the “% Inhibition @ 10 uM” value was -2.72%.
In the case of `Cc1onc(-c2ccccc2Cl)c1C(=O)NC1CCCCCC1`, the “% Inhibition @ 10 uM” value is reported as -4.75%.
In the case of `CCc1ccc(S(=O)(=O)Nc2ccc([N+](=O)[O-])cc2C)cc1`, the “% Inhibition @ 10 uM” value is reported as -1.25%.
In the case of `COc1cc([N+](=O)[O-])cc2c1NC(C(C)C)C1CC=CC21` (stereo not drawn), the “% Inhibition @ 10 uM” value is reported as 1%.
In the case of `COc1ccc(N(Cc2ccc(Br)cc2)C(=O)c2ccc(Cl)cc2Cl)cc1`, the “% Inhibition @ 10 uM” value is reported as -2.51%.
With `COc1ccc(CN2CCC(Cc3ccccc3)CC2)cc1C` the “% Inhibition @ 10 uM” value was -0.192%.
With `Cc1cc(=O)n2nc(N3CCCC(C(=O)NCc4cccnc4)C3)sc2n1` (stereo not drawn) the “% Inhibition @ 10 uM” value was 1.38%.
`COc1cc2nc(O)c3sc4ccccc4c3c2cc1OC` was tested, and the “% Inhibition @ 10 uM” value was -10.2%.
In the case of `O=C(Nc1ccc2c(c1)C(=O)NC2=O)c1ccccc1`, the “% Inhibition @ 10 uM” value is reported as 1.42%.
With `Cc1ccnc(NS(=O)(=O)c2ccc(NC(=O)C3CCCCC3)cc2)n1` the “% Inhibition @ 10 uM” value was -4.26%.
In the case of `CC(C)CSC1=NSC2=NC(=O)/C(=C\c3ccccc3)C(=N)N12`, the “% Inhibition @ 10 uM” value is reported as 3.97%.
`COc1cccc(CSc2nc3ccccc3c3nc(CCc4c(C)n[nH]c4C)nn23)c1` was tested, and the “% Inhibition @ 10 uM” value was 4.81%.
For `CN(C)CCCN(C(=O)c1ccccc1Br)c1nc2c(F)cccc2s1`, the “% Inhibition @ 10 uM” value was 8.55%.
For `O=C(Nc1ccc(Br)cn1)c1cc2n(n1)C(C(F)(F)F)CC(c1ccccc1)N2` (stereo not drawn), the “% Inhibition @ 10 uM” value was 50.4%.
With `Cc1ccc(CNC(=O)NC(C)c2c(-n3cccc3)sc(C)c2C)cc1` (stereo not drawn) the “% Inhibition @ 10 uM” value was -8.96%.
With `O=C(O)[C@@H]1CSC(c2ccc(F)cc2)N1` (stereo partly drawn) the “% Inhibition @ 10 uM” value was -3.38%.
`Cc1cccc(NC(=O)CSc2nc(-c3ccc(Cl)cc3)c[nH]2)c1` was tested, and the “% Inhibition @ 10 uM” value was 0.673%.
With `Cc1nc2ccccc2c2oc(C(=O)N3CCC(Cc4ccccc4)CC3)cc12` the “% Inhibition @ 10 uM” value was -0.0115%.
`O=C(NCc1ccco1)C1CCN(c2nc3ccc(Br)cc3s2)CC1` was tested, and the “% Inhibition @ 10 uM” value was -5.15%.
With `Cc1c(C(=O)N2CCN(Cc3ccccc3)CC2)oc2ccccc12` the “% Inhibition @ 10 uM” value was -6.52%.
In the case of `CCOc1cc(C)cc2oc(=O)c3c(c12)CCCC3`, the “% Inhibition @ 10 uM” value is reported as 1.39%.
With `COc1ccc(N2C(=O)CC(N3CCC(C(=O)O)CC3)C2=O)cc1` (stereo not drawn) the “% Inhibition @ 10 uM” value was -6.62%.
For `COC(=O)CC[C@@]1(C)CN(C)[C@@H](C)CC1=O`, the “% Inhibition @ 10 uM” value was -2.32%.
For `N#CC1=C(N)Oc2[nH]nc(-c3ccc4c(c3)OCO4)c2C1c1ccc(Br)cc1` (stereo not drawn), the “% Inhibition @ 10 uM” value was 0.82%.
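Further: 30 min substrate incubation versus DMSO and 10 µM JCP410 controls.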
